46 molecules from the supplement of paper PMC4723716 can be followed below.

Each structure is given as a SMILES string. ± gives the uncertainty stated by the source. The full ranking holds about 9,900 compounds; the median of “viability index relative to DMSO control” is about 1, and the lowest 2% start at about 0.85. The list shows a part of the results.

This test relates to Plasmodium falciparum NF54 stage V gametocytes. Description: viability index relative to DMSO control (fraction); higher = less gametocyte killing. As to conditions: 2.5 µM, library set: Broad Institute DOS, incubation time: 72 h. In short, it runs like this: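 In 1,536-well plates, 10 µl of serum-free medium holding P. falciparum NF54 stage V gametocytes (0.75% gametocytemia, 1.25% hematocrit) received compound at 2.5 µM for 72 hr at 37°C in low oxygen. After one to two hours with 3 µl of 2.5 µM MitoTracker Red CMXRos containing 0.13% saponin, red particles of 20–70 µm2 were counted in a single field per well. Viability index is reported as the particle count over the plate mean of wells treated with solvent only.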
With `O=C(NCCc1ccccc1)[C@@H]1[C@@H](CO)[C@@H]2Cn3c(ccc(-c4cccc(F)c4)c3=O)[C@H]1N2`, the viability index worked out at 0.936 ± 0.059.

Molecule `COc1ccc2c3c([C@H](CO)N(C[C@]33CCN(C)CC3)S(=O)(=O)c3ccc(C)cc3)n(C)c2c1` gave a viability index of 1.06 ± 0.1.

`CCNC(=O)[C@@H]1[C@@H](CO)[C@@H]2Cn3c(cccc3=O)[C@H]1N2C(=O)Nc1cc(F)ccc1F`: the viability index was 1.01 ± 0.046.

For the molecule `O=C(C[C@@H]1CC[C@H]2[C@@H](COC[C@H](O)CN2CC2CCOCC2)O1)NCC1CCCCC1`, the viability index turned out to be 1.2 ± 0.091.

The molecule `Cc1ccccc1S(=O)(=O)N1CCCCN2[C@H](CO)[C@@H](c3ccc(C#CCN(C)C)cc3)[C@@H]2C1` gave a viability index of 1.01 ± 0.087.

Take `Cc1nc(N2[C@H](C#N)[C@H](c3ccccc3)[C@H]2CO)sc1C`: the viability index is 1.09 ± 0.08.

`COc1ccccc1S(=O)(=O)N1CC[C@@H]2[C@@H](CO)Nc3ccc(-c4ccc(C#N)cc4)cc3[C@@H]21` gave a viability index of 1.1 ± 0.028.

Molecule `O=C1CNC[C@@H]2[C@H](c3ccc(C#Cc4cccnc4)cc3)[C@@H](CO)N12` gave a viability index of 0.97 ± 0.05.

In turn, `O=C(C1CCOCC1)N1[C@@H](CO)[C@H](c2ccccc2)C12CN(CCC(F)(F)F)C2` registered a viability index of 1.12 ± 0.015.

The molecule `N#Cc1cccc(-c2ccc([C@@H]3[C@H]4CNC[C@@H]3N4S(=O)(=O)c3ccc(F)cc3)cc2)c1` showed a viability index of 1.06 ± 0.029.

The molecule `CCS(=O)(=O)Nc1ccc2c(c1)C(=O)N(C)[C@H]1CC[C@@H](CC(=O)NCc3ccc(OC)cc3)O[C@@H]1CO2` came in with a viability index of 0.902 ± 0.11.

As for `N#C[C@H]1[C@H](c2ccc(-c3cncnc3)cc2)[C@@H](CO)N1C(=O)Cc1ccccc1`, the viability index stood at 1.06 ± 0.1.

Molecule `C[C@@H]1CN([C@@H](C)CO)C(=O)CCCn2nncc2CO[C@H]1CN(C)C(=O)Nc1cccc(Oc2ccccn2)c1` returned a viability index of 1.05 ± 0.05.

`Cc1noc(C)c1NC(=O)N(C)C[C@H]1OCc2ccccc2-c2c(n(C)c3ccccc23)C(=O)N([C@@H](C)CO)C[C@H]1C` gave a viability index of 0.994 ± 0.079.

In turn, `CS(=O)(=O)N1[C@H](CO)[C@@H](c2ccccc2)C12CN(C(=O)c1ccccc1F)C2` displayed a viability index of 1.11 ± 0.018.

Molecule `O=C(C[C@@H]1C=C[C@@H](NC(=O)c2cnccn2)[C@@H](CO)O1)NCc1ccccc1F` gave a viability index of 1.11 ± 0.054.

For `C[C@@H]1CC(=O)NCC/C=C\C[C@H](c2cccc(Cl)c2)NC1=O`, the viability index was 1.057 ± 0.0052.

`CC(=O)N1CCCCN2[C@H](CO)[C@H](c3ccc(-c4ccccc4)cc3)[C@@H]2C1` registered a viability index of 0.9842 ± 0.0065.

As to `O=C(NCC[C@H]1CC[C@@H](NC(=O)C2CCOCC2)[C@@H](CO)O1)c1cc(Cl)cc(Cl)c1`, the viability index was 0.97 ± 0.087.

In turn, `COc1cccc(S(=O)(=O)N2C[C@@H](O)COC[C@@H]3O[C@@H](CC(=O)NCCCN4CCOCC4)CC[C@H]32)c1` gave a viability index of 1.06 ± 0.094.

In turn, `C[C@H]1CN([C@@H](C)CO)C(=O)Cc2cc(NS(=O)(=O)c3cccs3)ccc2O[C@@H]1CN(C)CC1CCCCC1` yielded a viability index of 1.07 ± 0.1.

On to `COc1ccc2c3c([C@@H](CO)N(C[C@]33CN(Cc4ccccc4OC)C3)C(=O)C3CC3)n(C)c2c1`, for which the viability index was 1.07 ± 0.02.

Molecule `CN1CCN(C(=O)c2cc3c(c(-c4cccc(-c5cccnc5)c4)n2)[C@H](CCO)N(C(=O)CC2CC2)C3)CC1` came in with a viability index of 1.013 ± 0.0071.

As for `CS(=O)(=O)N1C[C@@H](O)COC[C@H]2O[C@H](CC(=O)NCc3ccccc3)CC[C@@H]21`, the viability index was found to be 0.998 ± 0.044.

For `C[C@@H]1CN([C@@H](C)CO)C(=O)c2cccc(N(C)C)c2O[C@H]1CN(C)Cc1ccncc1`, the viability index was determined as 1.05 ± 0.085.

`O=C(C[C@@H]1C[C@@H]2c3cc(NS(=O)(=O)c4ccc(F)cc4)ccc3O[C@@H]2[C@H](CO)O1)NCCN1CCCCC1` returned a viability index of 1.01 ± 0.056.

For `COc1ccc(-c2ccc([C@@H]3[C@@H](CO)N4C(=O)CN(Cc5ccccc5)C[C@H]34)cc2)cc1`, the viability index came out at 1.045 ± 0.0052.

As to `C[C@@H]1CN([C@@H](C)CO)C(=O)c2cc(NS(=O)(=O)c3ccc(Cl)cc3)ccc2O[C@@H](C)CCCCO[C@H]1CN(C)Cc1ccncc1`, the viability index was 1.06 ± 0.045.

For the molecule `O=C(NCc1ccccc1F)[C@H]1[C@H](CO)[C@H]2Cn3c(cccc3=O)[C@H]2N1CC1CCCC1`, the viability index was 1.01 ± 0.025.

On to `CN(Cc1ccccc1F)C[C@H]1[C@@H](c2ccccc2)[C@@H](CO)N1S(C)(=O)=O`, for which the viability index came out at 1 ± 0.032.

Regarding `CO[C@H](CN(C)Cc1cc(F)ccc1F)[C@@H](C)CN([C@@H](C)CO)S(=O)(=O)c1ccc(C)cc1`, the viability index turned out to be 1.09 ± 0.043.

`Cc1noc(C)c1S(=O)(=O)N(C)C[C@@H]1OCc2ccccc2-c2ccccc2C(=O)N([C@@H](C)CO)C[C@@H]1C` gave a viability index of 1.09 ± 0.011.

On to `O=C(C[C@H]1CC[C@@H]2[C@H](COC[C@H](O)CN2Cc2nccs2)O1)N1CCC(Cc2ccccc2)CC1`, for which the viability index was 1.06 ± 0.12.

`COc1cccc(S(=O)(=O)N[C@@H]2CC[C@H](CC(=O)NC3Cc4ccccc4C3)O[C@H]2CO)c1` displayed a viability index of 0.907 ± 0.18.

Consider `CCC(=O)N1[C@@H](CO)[C@@H](c2ccccc2)C12CN(C(=O)Nc1ccccc1F)C2`, for which the viability index was found to be 0.951 ± 0.021.

In the case of `CCC(=O)N[C@@H]1CC[C@@H](CC(=O)NCc2ccccc2F)O[C@H]1CO`, the viability index came to 1.11 ± 0.089.

In turn, `CS(=O)(=O)N1Cc2cc(C(=O)NCC3CC3)nc(-c3cccc(-c4cncnc4)c3)c2[C@@H]1CCO` yielded a viability index of 1.03 ± 0.018.

As for `C[C@@H]1CN([C@H](C)CO)C(=O)c2cc(NS(C)(=O)=O)ccc2O[C@@H](C)CCCCO[C@@H]1CN(C)CC1CCCCC1`, the viability index stood at 1.12 ± 0.13.

`CC(C)[C@@H]1C(=O)NCC/C=C/C[C@H](C)Oc2ccccc2C(=O)N1C.CC(C)[C@@H]1C(=O)NCC/C=C\C[C@H](C)Oc2ccccc2C(=O)N1C` returned a viability index of 0.942 ± 0.026.

`CO[C@H]1CC[C@H]2CCOc3c(C#N)cccc3C(=O)N(C)CCCC(=O)N(C)C[C@@H]1O2` yielded a viability index of 1.02 ± 0.088.

The molecule `COc1ccc2c3c([nH]c2c1)[C@H](CO)N(C[C@]31CCN(Cc2nccs2)CC1)C(=O)C1CCOCC1` came in with a viability index of 1.01 ± 0.017.

In turn, `CN1C(=O)c2cc(NC(=O)c3ccc(F)c(F)c3)ccc2OC[C@@H]2O[C@H](CC(=O)N3CCCCC3)CC[C@H]21` came in with a viability index of 0.986 ± 0.14.

`CCCNC(=O)N1C[C@H](C)[C@H](OC)CN(C)C(=O)c2ccc(NC(=O)CC)cc2OC[C@@H]1C` had a viability index of 1.04 ± 0.051.

`CO[C@@H]1CN(C)C(=O)c2cc(NC(=O)c3cccc(F)c3)ccc2OC[C@@H](C)N(C)C[C@H]1C`: the viability index stood at 1 ± 0.051.

For the molecule `COc1ccc(C(=O)N2C[C@H]3[C@@H](c4ccccc42)[C@@H](CO)N3Cc2ccccc2Cl)cc1`, the viability index was 0.984 ± 0.092.

`CS(=O)(=O)N1CC(=O)N2[C@@H](CO)[C@H](c3ccc(C#CCC4CCCC4)cc3)[C@@H]2C1` registered a viability index of 1.01 ± 0.033.
